Results: the supplement of paper PMC8728848
Some of the results follow.

Experiments:
Experiment in all cases: glycan array binding signal (z-score within array); higher = stronger binding
Settings in all cases: glycan notation: IUPAC condensed, linker removed
Gal(b1-2)Gal = target: Gal(b1-2)Gal
Outline: (§1)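 The Consortium for Functional Glycomics database supplied 3228 glycan arrays, of which those lacking an available protein sequence were dropped. The binding signal, a within-array Z-score, was averaged across arrays of the same protein sequence and across linkers. Negative scores can be read as non-binding.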

Gal(b1-3)Gal = target: Gal(b1-3)Gal
Outline: as §1

Gal(b1-3)Gal(b1-4)GlcNAc = target: Gal(b1-3)Gal(b1-4)GlcNAc
Outline: as §1

[1] = target: Gal(b1-3)Gal(b1-4)GlcNAc(b1-2)Man(a1-3)[Gal(b1-3)Gal(b1-4)GlcNAc(b1-2)Man(a1-6)]Man(b1-4)GlcNAc(b1-4)GlcNAc
Outline: as §1

Gal(b1-3)GalNAc = target: Gal(b1-3)GalNAc
Outline: as §1

[2] = target: Gal(b1-3)GalNAc(a1-3)[Fuc(a1-2)]Gal(b1-4)Glc
Outline: as §1

[3] = target: Gal(b1-3)GalNAc(a1-3)[Fuc(a1-2)]Gal(b1-4)GlcNAc
Outline: as §1

[4] = target: Gal(b1-3)GalNAc(b1-3)Gal(a1-4)Gal(b1-4)Glc
Outline: as §1

[5] = target: Gal(b1-3)GalNAc(b1-4)Gal(b1-4)Glc
Outline: as §1

[6] = target: Gal(b1-3)GalNAc(b1-4)[Neu5Ac(a2-3)]Gal(b1-4)Glc
Outline: as §1

Gal(b1-3)GlcNAc = target: Gal(b1-3)GlcNAc
Outline: as §1

[7] = target: Gal(b1-3)GlcNAc(a1-3)Gal(b1-4)GlcNAc
Outline: as §1

[8] = target: Gal(b1-3)GlcNAc(a1-6)Gal(b1-4)GlcNAc
Outline: as §1

[9] = target: Gal(b1-3)GlcNAc(b1-2)Man(a1-3)[Gal(b1-3)GlcNAc(b1-2)Man(a1-6)]Man(b1-4)GlcNAc(b1-4)GlcNAc
Outline: as §1

[10] = target: Gal(b1-3)GlcNAc(b1-2)Man(a1-3)[Gal(b1-3)GlcNAc(b1-2)Man(a1-6)]Man(b1-4)GlcNAc(b1-4)[Fuc(a1-6)]GlcNAc
Outline: as §1

[11] = target: Gal(b1-3)GlcNAc(b1-2)Man(a1-3)[GlcNAc(b1-4)][Gal(b1-3)GlcNAc(b1-2)Man(a1-6)]Man(b1-4)GlcNAc(b1-4)GlcNAc
Outline: as §1

[12] = target: Gal(b1-3)GlcNAc(b1-2)[Gal(b1-3)GlcNAc(b1-6)]Man(a1-6)[Gal(b1-3)GlcNAc(b1-2)Man(a1-3)]Man(b1-4)GlcNAc(b1-4)GlcNAc
Outline: as §1

[13] = target: Gal(b1-3)GlcNAc(b1-3)Gal(b1-3)GlcNAc
Outline: as §1

[14] = target: Gal(b1-3)GlcNAc(b1-3)Gal(b1-4)Glc
Outline: as §1

[15] = target: Gal(b1-3)GlcNAc(b1-3)Gal(b1-4)GlcNAc
Outline: as §1

[16] = target: Gal(b1-3)GlcNAc(b1-3)Gal(b1-4)GlcNAc(b1-6)[Gal(b1-3)GlcNAc(b1-3)]Gal(b1-4)Glc
Outline: as §1

[17] = target: Gal(b1-3)GlcNAc(b1-3)Gal(b1-4)[Fuc(a1-3)]GlcNAc(b1-6)[Gal(b1-3)GlcNAc(b1-3)]Gal(b1-4)Glc
Outline: as §1

[18] = target: Gal(b1-3)GlcNAc(b1-3)GalNAc
Outline: as §1

[19] = target: Gal(b1-3)GlcNAc(b1-6)Gal(b1-4)GlcNAc
Outline: as §1

[20] = target: Gal(b1-3)GlcNAc(b1-6)GalNAc
Outline: as §1

Gal(b1-3)GlcNAc6S = target: Gal(b1-3)GlcNAc6S
Outline: as §1

[21] = target: Gal(b1-3)[Fuc(a1-4)]GlcNAc
Outline: as §1

[22] = target: Gal(b1-3)[Fuc(a1-4)]GlcNAc(b1-2)Man(a1-3)[Gal(b1-3)[Fuc(a1-4)]GlcNAc(b1-2)Man(a1-6)]Man(b1-4)GlcNAc(b1-4)[Fuc(a1-6)]GlcNAc
Outline: as §1

[23] = target: Gal(b1-3)[Fuc(a1-4)]GlcNAc(b1-3)Gal(b1-3)[Fuc(a1-4)]GlcNAc
Outline: as §1

[24] = target: Gal(b1-3)[Fuc(a1-4)]GlcNAc(b1-3)Gal(b1-4)GlcNAc
Outline: as §1

[25] = target: Gal(b1-3)[Fuc(a1-4)]GlcNAc(b1-3)Gal(b1-4)[Fuc(a1-3)]GlcNAc
Outline: as §1

[26] = target: Gal(b1-3)[Fuc(a1-4)]GlcNAc(b1-6)GalNAc
Outline: as §1

[27] = target: Gal(b1-3)[GlcNAc(b1-6)]GalNAc
Outline: as §1

[28] = target: Gal(b1-3)[Neu5Ac(a2-6)]GalNAc
Outline: as §1

[29] = target: Gal(b1-3)[Neu5Ac(a2-6)]GlcNAc(b1-6)Gal(b1-4)Glc
Outline: as §1

[30] = target: Gal(b1-3)[Neu5Ac(b2-6)]GalNAc
Outline: as §1

Gal(b1-4)Gal = target: Gal(b1-4)Gal
Outline: as §1

[31] = target: Gal(b1-4)GalNAc(a1-3)[Fuc(a1-2)]Gal(b1-4)GlcNAc
Outline: as §1

B1: Gal 8 (Homo sapiens), O00214_1 (protein)
chain: MMLSLNNLQNIIYNPVIPFVGTIPDQLDPGTLIVIRGHVPSDADRFQVDLQNGSSMKPRADVAFHFNPRFKRAGCIVCNTLINEKWGREEITYDTPFKREKSFEIVIMVLKDKFQVAVNGKHTLLYGHRIGPEKIDTLGIYGKVNIHSIGFSFSSDLQSTQASSLELTEISRENVPKSGTPQLRLPFAARLNTPMGPGRTVVVKGEVNANAKSFNVDLLAGKSKDIALHLNPRLNIKAFVRNSFLQESWGEEERNITSFPFSPGMYFEMIIYCDVREFKVAVNGVHSLEYKHRFKELSSIDTLEINGDIHLLEVRSW
glycan array binding signal (z-score) (Gal(b1-2)Gal): -0.201
glycan array binding signal (z-score) (Gal(b1-3)Gal): -0.185
glycan array binding signal (z-score) (Gal(b1-3)Gal(b1-4)GlcNAc): 0.16
glycan array binding signal (z-score) [1]: 1.63
glycan array binding signal (z-score) (Gal(b1-3)GalNAc): -0.221
glycan array binding signal (z-score) [2]: 1.58
glycan array binding signal (z-score) [3]: 2.17
glycan array binding signal (z-score) [4]: -0.209
glycan array binding signal (z-score) [5]: -0.083
glycan array binding signal (z-score) [6]: -0.242
glycan array binding signal (z-score) (Gal(b1-3)GlcNAc): -0.167
glycan array binding signal (z-score) [7]: 0.729
glycan array binding signal (z-score) [8]: -0.26
glycan array binding signal (z-score) [9]: -0.052
glycan array binding signal (z-score) [10]: -0.63
glycan array binding signal (z-score) [11]: -0.104
glycan array binding signal (z-score) [12]: 0.178
glycan array binding signal (z-score) [13]: 0.531
glycan array binding signal (z-score) [14]: 0.084
glycan array binding signal (z-score) [15]: -0.066
glycan array binding signal (z-score) [16]: 0.498
glycan array binding signal (z-score) [17]: 0.338
glycan array binding signal (z-score) [18]: -0.235
glycan array binding signal (z-score) [19]: -0.184
glycan array binding signal (z-score) [20]: -0.2
glycan array binding signal (z-score) (Gal(b1-3)GlcNAc6S): 0.487
glycan array binding signal (z-score) [21]: -0.191
glycan array binding signal (z-score) [22]: -0.173
glycan array binding signal (z-score) [23]: -0.099
glycan array binding signal (z-score) [24]: -0.181
glycan array binding signal (z-score) [25]: -0.12
glycan array binding signal (z-score) [26]: -0.11
glycan array binding signal (z-score) [27]: -0.186
glycan array binding signal (z-score) [28]: -0.22
glycan array binding signal (z-score) [29]: -0.169
glycan array binding signal (z-score) [30]: -0.255
glycan array binding signal (z-score) (Gal(b1-4)Gal): -0.099
glycan array binding signal (z-score) [31]: 0.79
